For nine molecules, binding signal results are on record in article PMC9911399, “Two distinct binding modes provide the RNA-binding protein RbFox with extraordinary sequence specificity”.

The chains are these.
B1: UAUAACC (DNA:RNA)
RNA: GGGAGACCGGAAUUCAGAUUGUCCUAUAACCUUAAAUCCCGUCGUAGCCACCA
DNA 1: CAATCTGAATTCCGGTCTCCC
DNA 2: TGGTGGCTACGACGGGATT
B2: CCUGGCC (DNA:RNA)
RNA: B1 RNA with U25C, A26C, A28G, A29G
DNA 1: CAATCTGAATTCCGGTCTCCC
DNA 2: TGGTGGCTACGACGGGATT
B3: UGCCCGG (DNA:RNA)
RNA: B1 RNA with A26G, U27C, A28C, A29C, C30G, C31G
DNA 1: CAATCTGAATTCCGGTCTCCC
DNA 2: TGGTGGCTACGACGGGATT
B4: CCACUUC (DNA:RNA)
RNA: B1 RNA with U25C, A26C, U27A, A28C, A29U, C30U
DNA 1: CAATCTGAATTCCGGTCTCCC
DNA 2: TGGTGGCTACGACGGGATT
B5: AUGAUAC (DNA:RNA)
RNA: B1 RNA with U25A, A26U, U27G, A29U, C30A
DNA 1: CAATCTGAATTCCGGTCTCCC
DNA 2: TGGTGGCTACGACGGGATT
B6: ACGGCCA (DNA:RNA)
RNA: B1 RNA with U25A, A26C, U27G, A28G, A29C, C31A
DNA 1: CAATCTGAATTCCGGTCTCCC
DNA 2: TGGTGGCTACGACGGGATT
B7: UCUAAAC (DNA:RNA)
RNA: B1 RNA with A26C, C30A
DNA 1: CAATCTGAATTCCGGTCTCCC
DNA 2: TGGTGGCTACGACGGGATT
B8: GCCGUUC (DNA:RNA)
RNA: B1 RNA with U25G, A26C, U27C, A28G, A29U, C30U
DNA 1: CAATCTGAATTCCGGTCTCCC
DNA 2: TGGTGGCTACGACGGGATT
B9: UGGUCCC (DNA:RNA)
RNA: B1 RNA with A26G, U27G, A28U, A29C
DNA 1: CAATCTGAATTCCGGTCTCCC
DNA 2: TGGTGGCTACGACGGGATT

Changes are numbered by the printed parent chain; changes in the protein carry UniProt numbers. This is one part of the list.

This assay deals with T1, RBFOX1 RRM RbFoxmut (Fox-RRM*) (Homo sapiens, UniProt Q9NWB1 109-208, R118D;E147R;N151S;E152T).
T1 sequence: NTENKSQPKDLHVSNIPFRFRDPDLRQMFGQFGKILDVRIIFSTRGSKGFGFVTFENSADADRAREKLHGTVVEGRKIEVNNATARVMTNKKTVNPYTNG
The assay can be described thus: EMSA; HiTS-Eq, 1 nM pool, 10 min; buffer printed only for the single-RNA assays: 10 mM Tris pH 7.5, 150 mM NaCl, 3.4 mM EDTA, 0.001% NP-40, 30 C. As to conditions: tags: His6 N-terminal (pET28a); label: 5' 32P. The method in brief:
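Purified RbFox RRM, wild type or mutant, was incubated for 10 min in 50 µL with 1 nM of a 5′-radiolabelled RNA pool carrying 7 randomized nucleotides, whose flanks were annealed to DNA oligonucleotides, over a series of increasing protein concentrations. Unbound RNA was resolved on 8% native PAGE, cut out, reverse-transcribed, barcoded by PCR and sequenced on an Illumina HiSeq 2500. Relative association constants were derived from changes in read counts for each RNA species versus the control reaction and normalised to the cognate motif.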
Turning to B1, the binding signal was 0.0973 KA relative to UGCAUGU.

B2: the binding signal was 0.274 KA relative to UGCAUGU.

B3: the binding signal was 0.112 KA relative to UGCAUGU.

On to B4, for which the binding signal was 0.0839 KA relative to UGCAUGU.

With B5, the binding signal is 0.139 KA relative to UGCAUGU.

For B6, the binding signal was 0.089 KA relative to UGCAUGU.

Turning to B7, the binding signal was 0.0642 KA relative to UGCAUGU.

In the case of B8, the binding signal was 0.051 KA relative to UGCAUGU.

As for B9, the binding signal was 0.145 KA relative to UGCAUGU.
